Measured values from PMC12136788.
The list shows a part of the results.

B1: chr1:225611761:225611762:-_ENSG00000143815_ENST00000272163|hu_mus|hu_hu_hu_mus_True|28_108 (ssRNA)
RNA: GGGAGUUCUACAGUCCGACGAUCCCAGGCCAUCGACCUCUGACCACUUCACCCUCAACAAACUUCCUACUUGGCAUUUUCUAAAAUUAGUCUGGCCGCGCUCCGGCCGGUGACACGGCCACUCCAGGACAGUCACCAGCAGCCCAACAGAGGAUUGAGCAUCA
B2: chr2:202488911:202488912:-_ENSG00000155755_ENST00000286196|hu_mus|hu_hu_hu_mus_False|38_58 (ssRNA)
RNA: GGGAGUUCUACAGUCCGACGAUCAUUGAAACAUUUUUCAUAAUCUCCAGUAGCAUUUCAGCAUUAUGUAACAAAAGAUCUAUUACAAAUACAUGUAUAUACAUCUUAUACACUUAAAAACACGAGUGGGGAGCGCAGGCGCCACAACAGAGGAUUGAGCAUCA
B3: chr19:10591827:10591828:-_ENSMUSG00000024668_ENSMUST00000025570|mus_mus|FALSE|FALSE (ssRNA)
RNA: GGGAGUUCUACAGUCCGACGAUCUUCAAUCAUGUCUUUUUGAGAGUCUGUUGGGCUGUCACCUCUGUAGAAGCGUCUGAAUGAUGUCACACUAGGCAAGGGAGACAGCAGACUGUGCUUUGACAGUGCCCGCGCCAGCGUCGGCAACAGAGGAUUGAGCAUCA
B4: 78432385_78432637_487_CDS_ENSG00000162613_ENST00000370768|human|control|control (ssRNA)
RNA: GGGAGUUCUACAGUCCGACGAUCUUCAGGUGUUCCAGUUAACAUACAGGACCUUUCUGGAAGGCCACCACUGUCAGGAGCUAUCUGUAUUUUGCAUCCAGAUUCCUGUUGUAUGCGUGAGAUCUGUUCACCUCCUCUGCCAAUCAACAGAGGAUUGAGCAUCA
B5: chr11:86535762:86535763:-_ENSMUSG00000047126_ENSMUST00000103186|mus_mus|motif|central (ssRNA)
RNA: GGGAGUUCUACAGUCCGACGAUCUGCAAAGCACUGGAUGACUUUAUUAGGUACAUUGGCCCUGAGGUAAACACUCAGUGCGGAUGUUGGGUCCACAGAUUUAACGAGAUCACCCAGUUCUUCAGAACAUUCCAGCUUAUCUUCCAACAGAGGAUUGAGCAUCA
B6: 122916881_122917777_1671_CDS_ENSMUSG00000029467_ENSMUST00000031423|mouse|control|control (ssRNA)
RNA: GGGAGUUCUACAGUCCGACGAUCGGCUAACUCUACAAGCCCGUCAUACUGAUGGCACUUCACUGGCUUAUCAUCCUUUUGCACUUCUCCAAUUGGUGCAUAUGUGGAUCCAGUUAUGCUGAACUCAUUAAGGGAACAAGUGUCCAACAGAGGAUUGAGCAUCA
B7: 40854255_40857228_447_CDS_ENSG00000132872_ENST00000255224|human|control|control (ssRNA)
RNA: GGGAGUUCUACAGUCCGACGAUCGUUAGACUUGGAUGAUUUUCUCUGACAGCAGAUCCAUGCAAAGAGAGAGACUGUGAAGACCAGGCCAAAUGCACUGAAGAUCCCCACCACUGUGGGGAUUUCAUCAAAUUCUUCCCGGCUCAACAGAGGAUUGAGCAUCA
B8: chr7:151048522:151048523:+_ENSG00000013374_ENST00000566856|hu_mus|hu_hu_hu_mus_True|68_68 (ssRNA)
RNA: GGGAGUUCUACAGUCCGACGAUCCUGUUUCUUAUUUAUUACGAUCUUGAUGUAAUUUUCUUGAAAUCCAAAGGUUUCAGCUAUUUGACACCUCAGGUCUCUACCAGUGACAUGCAAGCGGGUCUCCAACAAGCUUUUCUUAUCCAACAGAGGAUUGAGCAUCA
B9: 47180716_47180836_1313_ncRNA_ENSMUSG00000021377_ENSMUST00000138401|mouse|control|control (ssRNA)
RNA: GGGAGUUCUACAGUCCGACGAUCAACCACAUUGAUGACACUUUGAGGGCAAAGCAGAACUGGACAGUCCUCAGUGCCAUCACCACUGAACUCUGCGCUGUCACUGCUGCCUGGAUGAACACUGACAUUUAGUUACAAGUUUAACAACAGAGGAUUGAGCAUCA
B10: chr2:128510325:128510326:-_ENSMUSG00000014355_ENSMUST00000014499|mus_hu|FALSE|FALSE (ssRNA)
RNA: GGGAGUUCUACAGUCCGACGAUCAUAAACUGCCAAUGCCUGGCUUUUACUUCCUUUGCUCCAUAUCACCAUAUUUCCAGCAACAUAGAGUUCCUCAUCAUAGUCCACAUCUUCUCCAAUUUCACUUACUCCUUUCCUUAACUGCAACAGAGGAUUGAGCAUCA
B11: chr7:138125181:138125182:+_ENSMUSG00000006205_ENSMUST00000006367|mus_hu|motif|central (ssRNA)
RNA: GGGAGUUCUACAGUCCGACGAUCGAUUCCAGCUGUCACUUUCAAAGUGUUAAUUCCAAUCACUUCACCGUCCAGGUUUACGGACGGGCCUCCCGAGUUUCCAUAGUUGAUGAUGGCGUCGGUCUGGAUGUAGUCCAUGUCUGACAACAGAGGAUUGAGCAUCA
B12: chr3:179287964:179287965:+_ENSG00000136518_ENST00000429709|hu_hu|hu_hu_hu_mus_True|18_108 (ssRNA)
RNA: GGGAGUUCUACAGUCCGACGAUCCUUUAGAGGUGAAAUGGCCUCCAUGUUCUCCCUGGGCACGCGGAGGGCAUUGGUGUCUAUGUAGUAGGUGGGCCCGCCCUGCUUGCCUUUGUCGCCAUCUAUUUCCAUCAUUGUACUUCCCAACAGAGGAUUGAGCAUCA
B13: 59426904_59434407_190_3pUTR_ENSG00000166889_ENST00000300146|human|control|control (ssRNA)
RNA: GGGAGUUCUACAGUCCGACGAUCUUCAGCCAGGCGCUCAUGUGCUUCCUGCCAAUCAUCAUCAACUGCACCUGACCCAAAUGUAUCAUCAUUGAAUUGAUCAAUCUCUUCAUCUUCUUCUCCCAGUCCCUGAAAUGCAUCUUCCAACAGAGGAUUGAGCAUCA
B14: chr2:228221723:228221724:+_ENSG00000168958_ENST00000354503|hu_hu|FALSE|FALSE (ssRNA)
RNA: GGGAGUUCUACAGUCCGACGAUCGACCAUUUCUCUUUUAGCACGUUCUUUGUUCUCCUCUUCCAGAAGUUGUAGACGUCUAUUUAGUUUGAUUAUCUGUCGUCUUAGUGAAGCUGCAUCUACAACAGUCAGGUCAUCUGACGUCAACAGAGGAUUGAGCAUCA

target: T1, UNK ZnF1-3 (human, UniProt Q9C0B0 31-174); test: nsRBNS (natural sequence RNA bind-n-seq); RBNS binding buffer (assumed for nsRBNS): 25 mM Tris pH 7.5, 150 mM KCl, 3 mM MgCl2, 0.01% Triton X-100, 500 ug/ml BSA, 20 U/ml SUPERase-In, 4 C; UNK is unkempt and MSI1 is Musashi-1; names of the RNAs are library labels; protein concentration not given here; high values mean tight binding
T1 sequence: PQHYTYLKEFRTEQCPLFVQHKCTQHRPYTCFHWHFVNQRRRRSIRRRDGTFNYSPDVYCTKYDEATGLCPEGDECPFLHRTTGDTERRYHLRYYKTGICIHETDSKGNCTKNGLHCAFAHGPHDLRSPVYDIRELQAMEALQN

Binder	binding signal
B1	1.18 enrichment R
B2	0.766 enrichment R
B3	0.794 enrichment R
B4	0.709 enrichment R
B5	0.645 enrichment R
B6	0.382 enrichment R
B7	0.891 enrichment R
B8	0.645 enrichment R
B9	0.775 enrichment R
B10	0.665 enrichment R
B11	0.538 enrichment R
B12	0.678 enrichment R
B13	0.77 enrichment R
B14	0.376 enrichment R
